Data reported in PubChem BioAssay AID624417 (National Center for Advancing Translational Sciences (NCATS), 2012).
Screen size: about 410,000 compounds; about 6,400 (1.6%) were called active. This list was built around the results that the source calls inconclusive (neither active nor inactive); the mix of calls is not that of the screen. Calls follow the shape of the dose curve; as a rule, active = well fitted inhibition curve with a large enough effect; inconclusive = small, poorly fitted or top-dose-only effect; inactive = no such curve, though single readings can be large or run the other way. Potencies of inconclusive entries are left out as doubtful fits.

target: Glucagon-like peptide 1 receptor (Homo sapiens) (UniProt P43220); assay: qHTS of GLP-1 Receptor Inverse Agonists (Inhibition Mode); conditions: HEK293 GLP-1R CRE-luciferase, luminescence, 24 h, GLP-1R form is constitutively active; activity change, negative = inhibition: at 38.3 µM (top of the series) unless noted; also: nearly all actives have a fitted effect of over 55% in size
UniProt P43220, sequence (P43220 whole entry, looked up): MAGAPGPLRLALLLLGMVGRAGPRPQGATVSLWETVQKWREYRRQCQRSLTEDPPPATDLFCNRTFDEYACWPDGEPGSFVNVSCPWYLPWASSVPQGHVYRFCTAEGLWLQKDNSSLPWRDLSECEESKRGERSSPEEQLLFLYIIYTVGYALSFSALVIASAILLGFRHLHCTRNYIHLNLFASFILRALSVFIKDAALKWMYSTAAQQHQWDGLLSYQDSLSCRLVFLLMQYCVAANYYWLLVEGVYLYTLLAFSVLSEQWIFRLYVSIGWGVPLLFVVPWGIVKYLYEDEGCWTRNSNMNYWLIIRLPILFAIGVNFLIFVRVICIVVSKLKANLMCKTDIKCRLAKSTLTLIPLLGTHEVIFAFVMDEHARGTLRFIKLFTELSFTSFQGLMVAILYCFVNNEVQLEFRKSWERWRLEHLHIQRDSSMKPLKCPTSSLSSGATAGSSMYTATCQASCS
In short: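 Constitutively active GLP-1R drives a cAMP-responsive luciferase in stably transfected HEK293 cells; test compounds are added after overnight (12 h) attachment and left 24 hr, and signal loss in luminescence marks inhibition.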
% is scaled to controls: 0 for no effect and ±100 for the full control effect; potency is read from the fitted curve at half-maximal effect; tags tell the direction and shape of the fitted curve.

SMILES	Potency	activity change, negative = inhibition
Cc1ccc(S(=O)(=O)N/N=C/c2cc(Br)ccc2O)cc1	inconclusive [inhibitor, single point]	–
Cc1ccc(NC(=O)NCCCl)cc1S(=O)(=O)N1CCOCC1	inconclusive [inhibitor, partial curve, poor fit]	–
CC(C)(C)n1nnnc1C(c1cc2ccccc2o1)N(Cc1ccccc1)Cc1ccccc1 (stereo unspecified)	inconclusive [inhibitor, partial curve, poor fit]	–
COC(=O)c1ccc2nc(-c3cccc(Br)c3)c(Cc3ccccc3)n2c1	–	inactive: 15.9%
O=C(CO/N=C/c1ccccc1Cl)N1CCCc2ccccc21	inconclusive [inhibitor, single point]	–
CCCCCCC[C@@H](C/C=C/CCC(=O)O)OC	inconclusive [inhibitor, partial curve, poor fit]	–
CC(NC(=O)c1ccc(Br)o1)C1CC2CCC1C2 (stereo unspecified)	inconclusive [inhibitor, single point]	–
C/C(=N\NC(=O)c1ccccn1)C12CC3CC(CC(C3)C1)C2	inconclusive [inhibitor, partial curve, poor fit]	–
COCC(C)n1c(C)cc(C(=O)COC(=O)c2oc3ccccc3c2C)c1C (stereo unspecified)	inconclusive [inhibitor, partial curve, poor fit]	–
CC(C)COc1ccc(C(=O)OCCN2CCOCC2)c(O)c1	inconclusive [inhibitor, single point]	–
CN(Cc1ccccc1)CC(O)COc1ccc(CNCCCOc2cccnc2)cc1 (stereo unspecified)	inconclusive [inhibitor, single point]	–
CCOC(=O)N1CCN(C(=O)C[C@@H]2C[C@@]3(C(=O)OC)CC(C)(C)CC=C3N(Cc3ccco3)C2=O)CC1	–	inactive: -19.4%
COc1ccc2cc1Oc1ccc(cc1)C[C@H]1c3c(cc(OC)c4c3Oc3c(ccc5c3[C@H](C2)N(C)CC5)O4)CCN1C	–	inactive: 2.45%
O=C(NCCN1CCC(n2c(=O)[nH]c3ccccc32)CC1)c1ccncc1	–	inactive: 4.28%
CCOC(=O)C1=C(C)N(C[C@@H]2CC[C@@H](Cc3ccc(-c4ccccc4)cc3)O2)C(=O)NC1c1ccc([N+](=O)[O-])cc1 (stereo partly specified)	inconclusive [inhibitor, single point]	–
Cc1ccc(-c2noc(CCC(=O)N(C)c3ccccc3C)n2)cc1	inconclusive [inhibitor, single point]	–
COc1ccccc1C(c1nnnn1C(C)(C)C)N1CCN(Cc2ccccc2)CC1 (stereo unspecified)	inconclusive [inhibitor, single point]	–
CCSc1oc(-c2ccco2)nc1S(=O)(=O)c1ccc(F)cc1	–	inactive: 7.19%
COc1ccc(-c2cc(OC(=O)c3cccc(C)c3)c3c(C)oc(C)c3c(=O)c2)cc1	–	inactive: -14.3%
Cn1c(=NC(=O)CS(=O)(=O)c2ccccc2)sc2cc(F)ccc21	–	inactive: 8.45%
Cc1ccc(CNc2ncnc3c2cnn3-c2ccc(C)cc2C)cc1	inconclusive [inhibitor, single point]	–

SMILES	Potency	activity change, negative = inhibition
O=C(Nc1ccc2c(c1)OCO2)C(c1ccccc1)N1CCCCC1 (stereo unspecified)	inconclusive [inhibitor, single point]	–
CN(Cc1ccccc1)C(=O)CC(c1ccccc1)c1cc(Cl)ccc1O (stereo unspecified)	inconclusive [inhibitor, partial curve, poor fit]	–
Cc1ccc(NC(=S)N(C)C(c2ccccc2)c2ccccc2)cc1C	inconclusive [inhibitor, partial curve, poor fit]	–
CCn1nc(C(=O)NNC(=O)c2cc(Cl)ccc2OC)c2ccccc2c1=O	inconclusive [inhibitor, single point]	–
Cc1csc(N=Nc2ccc(N(C)C)cc2)[n+]1[O-]	inconclusive [inhibitor, full curve, poor fit]	–
COc1ccc(NC(=O)CCNS(=O)(=O)c2ccc3c(c2)CCN3C(=O)C2CC2)cc1Cl	–	inactive: 1.76%
CN(C(=O)c1ccc(COc2ccccc2Br)o1)c1ccccc1	inconclusive [inhibitor, partial curve, poor fit]	–
COc1ccc(-c2nnc(SCC(=O)Nc3cccc(Cl)c3C)nc2-c2ccc(OC)cc2)cc1	–	inactive: -0.77%
CN1CCN(C(CNC(=O)Nc2ccc(Cl)cc2)c2ccc(F)cc2)CC1 (stereo unspecified)	inconclusive [inhibitor, single point]	–
COc1ccc(Nc2nc(N)nc(CSC(=S)N3CCN(c4ccccc4)CC3)n2)cc1	inconclusive [inhibitor, partial curve, poor fit]	–
CCCCOC(=O)Cn1c(-c2ccccc2)nc2ccccc2c1=O	inconclusive [inhibitor, single point]	–
COc1ccc(CNC(=S)N/N=C(/C)c2ccccc2)cc1	inconclusive [inhibitor, partial curve, poor fit]	–
COc1ccc(NC(=O)CSCC(=O)Nc2ccccc2N2CCCC2)cc1	inconclusive [inhibitor, partial curve, poor fit]	–
Cc1ccc([N+](=O)[O-])cc1S(=O)(=O)N1CCCN(C)CC1	–	inactive: -5.16%
CC(C)(CN1CCc2ccccc2C1)NS(=O)(=O)c1ccc(Cl)cc1	inconclusive [inhibitor, partial curve, poor fit]	–
CC1CCCCN1CCNC(=O)CN1C(=O)CSc2ccc(S(=O)(=O)N3CCCCC3)cc21 (stereo unspecified)	inconclusive [inhibitor, partial curve, poor fit]	–
Cc1ccc(C)c(NC(=O)CCCN2C(=O)C(c3ccccc3)Oc3cccnc32)c1 (stereo unspecified)	–	inactive: 10.2%
CCN(CC)c1ccc(/C=N/NC(=O)c2ccco2)c(O)c1	inconclusive [inhibitor, partial curve, poor fit]	–
Cc1ccc(C(O)c2ncc(-c3cccc4ccccc34)[nH]2)c(C)c1 (stereo unspecified)	inconclusive [inhibitor, single point]	–
CC(NC(=O)c1ccc(F)cc1)C1CC2CCC1C2 (stereo unspecified)	inconclusive [inhibitor, partial curve, poor fit]	–
